Among the data in the supplement of paper PMC6609913 are normalised cell viability values, retold here.

Where a name gives a salt, the structure may show the parent alone. ± gives the standard deviation of the averaged measurements. The full ranking holds about 1,300 compounds; the median of “normalised cell viability” is about 1, and the lowest 2% start at about 0.14. Some of the results follow.

This assay has as its system V-C8 (BRCA2-deficient hamster cells). The assay can be described thus: normalised cell viability (fraction of plate median); higher = more viable cells (less toxic). To be noted: 5 µM. An outline of the steps:
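Hamster V-C8 cells lacking BRCA2 and V-C8 cells with BRCA2 restored were seeded in 96-well plates. Library drugs (10 mM DMSO stocks) were added 24 h later at 5 μM in 100 μl medium, next to DMSO control wells, for 3 days (screen 1) or 6 days (screen 2). Cell viability was read by resazurin assay, median-plate normalised (modified robust per cent of sample), and triplicate wells were averaged.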

As for `C[C@H](Cc1cc2c(c(C(N)=O)c1)N(CCCO)CC2)NCCOc1ccccc1OCC(F)(F)F` [Silodosin], the normalised cell viability is, setting by setting: (treatment time: 3 days) 0.935 ± 0.017; (treatment time: 6 days) 0.949 ± 0.096.

`Cc1onc(-c2c(F)cccc2Cl)c1C(=O)N[C@@H]1C(=O)N2[C@@H]1SC(C)(C)[C@@H]2C(=O)O` [Flucloxacillin sodium] gave a normalised cell viability (treatment time: 3 days) of 0.997 ± 0.051 and a normalised cell viability (treatment time: 6 days) of 1.06 ± 0.095.

With `CCN1CCCC(OC(=O)C(c2ccccc2)c2ccccc2)C1` (centres undefined) [Piperidolate hydrochloride], the normalised cell viability is, setting by setting: (treatment time: 3 days) 1.18 ± 0.22; (treatment time: 6 days) 0.998 ± 0.039.

With `NS(=O)(=O)c1cc(Cl)c(Cl)c(S(N)(=O)=O)c1` [Dichlorphenamide], the normalised cell viability (treatment time: 3 days) amounted to 1.09 ± 0.038 and the normalised cell viability (treatment time: 6 days) was 0.984 ± 0.06.

`CCCCCNC(=N)N/N=C/c1c[nH]c2ccc(OC)cc12` [Tegaserod maleate] had a normalised cell viability (treatment time: 3 days) of 0.124 ± 0.011 and a normalised cell viability (treatment time: 6 days) of 0.164 ± 0.016.

As to `C[C@@H]1C[C@H]2[C@@H]3C[C@H](F)C4=CC(=O)C=C[C@]4(C)[C@@]3(Cl)[C@@H](O)C[C@]2(C)[C@H]1C(=O)COC(=O)C(C)(C)C` [Clocortolone pivalate], the normalised cell viability (treatment time: 3 days) is 0.897 ± 0.043 and the normalised cell viability (treatment time: 6 days) was found to be 0.913 ± 0.038.

Compound `CNCCCC12CCC(c3ccccc31)c1ccccc12` [Maprotiline hydrochloride] registered a normalised cell viability (treatment time: 3 days) of 0.987 ± 0.015 and a normalised cell viability (treatment time: 6 days) of 0.8 ± 0.022.

As for `OC(c1cc(C(F)(F)F)nc2c(C(F)(F)F)cccc12)C1CCCCN1` (centres undefined) [Mefloquine hydrochloride], the normalised cell viability (treatment time: 3 days) amounted to 0.153 ± 0.016 and the normalised cell viability (treatment time: 6 days) was 0.708 ± 0.074.

Take `CCN(CC)C(=O)/C(C#N)=C/c1cc(O)c(O)c([N+](=O)[O-])c1` [Entacapone]: the normalised cell viability was determined as 0.957 ± 0.024 (treatment time: 3 days) and 1.06 ± 0.059 (treatment time: 6 days).

`C[C@]12C=CC(=O)C=C1CC[C@H]1[C@@H]3C[C@@H](O)[C@](O)(C(=O)CO)[C@@]3(C)C[C@H](O)[C@@]12F` [Triamcinolone] had a normalised cell viability (treatment time: 3 days) of 1.06 ± 0.046 and a normalised cell viability (treatment time: 6 days) of 0.979 ± 0.038.

`CC1(C)O[C@@H]2C[C@H]3[C@@H]4CCC5=CC(=O)CC[C@]5(C)[C@@]4(F)[C@@H](O)C[C@]3(C)[C@]2(C(=O)CCl)O1` [Halcinonide]: the normalised cell viability is 0.953 ± 0.023 (treatment time: 3 days) and 0.913 ± 0.052 (treatment time: 6 days).

Regarding `CC(=O)O[C@H]1C[C@@H]2CC[C@@H]3[C@H](CC[C@@]4(C)[C@H]3C[C@H]([N+]3(C)CCCCC3)[C@@H]4OC(C)=O)[C@@]2(C)C[C@@H]1N1CCCCC1` [Vecuronium bromide], the normalised cell viability turned out to be 1.01 ± 0.047 (treatment time: 3 days) and 1.04 ± 0.036 (treatment time: 6 days).

For `C[C@@H](O)[C@H]1C(=O)N2C(C(=O)O)=C(S[C@@H]3CN[C@H](C(=O)N(C)C)C3)[C@H](C)[C@H]12` [Meropenem], the normalised cell viability was 0.978 ± 0.12 (treatment time: 3 days) and 1.17 ± 0.2 (treatment time: 6 days).

Take `NC(=O)c1cnccn1` [Pyrazinamide]: the normalised cell viability (treatment time: 3 days) worked out at 1.12 ± 0.057 and the normalised cell viability (treatment time: 6 days) was 1.05 ± 0.071.

`O=C(CCNNC(=O)c1ccncc1)NCc1ccccc1` [Nialamide]: the normalised cell viability runs as follows: (treatment time: 3 days) 1.1 ± 0.067; (treatment time: 6 days) 0.952 ± 0.045.

With `N/C(=N\C(=O)c1nc(Cl)c(N)nc1N)NCc1ccccc1` [Benzamil hydrochloride], the normalised cell viability reads like this: (treatment time: 3 days) 0.819 ± 0.015; (treatment time: 6 days) 0.833 ± 0.056.

On to `Cc1nc2ccccn2c(=O)c1CCN1CCC(C(=O)c2ccc(F)cc2)CC1` [Pirenperone], for which the normalised cell viability stood at 0.963 ± 0.064 (treatment time: 3 days) and 0.999 ± 0.048 (treatment time: 6 days).

Regarding `CSc1nc2cc(Cl)c(Oc3cccc(Cl)c3Cl)cc2[nH]1` [Triclabendazole], the normalised cell viability came to 0.196 ± 0.015 (treatment time: 3 days) and 0.21 ± 0.021 (treatment time: 6 days).

On to `COc1cccc2c1C(=O)c1c(O)c3c(c(O)c1C2=O)C[C@@](O)(C(=O)CO)C[C@@H]3O[C@H]1C[C@H](N)[C@@H](O)[C@H](C)O1` [Epirubicin hydrochloride], for which the normalised cell viability runs as follows: (treatment time: 3 days) 0.123 ± 0.013; (treatment time: 6 days) 0.163 ± 0.016.

`CCCN(CCC)CCc1cccc2c1CC(=O)N2` [Ropinirole HCl]: the normalised cell viability was determined as 1.04 ± 0.065 (treatment time: 3 days) and 1.06 ± 0.054 (treatment time: 6 days).

Take `CC(=O)O[C@H]1C(=O)[C@@]2(C)[C@H]([C@H](OC(=O)c3ccccc3)[C@]3(O)C[C@H](OC(=O)[C@H](O)[C@@H](NC(=O)c4ccccc4)c4ccccc4)C(C)=C1C3(C)C)[C@]1(OC(C)=O)CO[C@@H]1C[C@@H]2O` [Paclitaxel]: the normalised cell viability runs as follows: (treatment time: 3 days) 0.193 ± 0.01; (treatment time: 6 days) 0.199 ± 0.0046.

In the case of `C/C=C(/C(=C/C)c1ccc(O)cc1)c1ccc(O)cc1` [Dienestrol], the normalised cell viability runs as follows: (treatment time: 3 days) 0.968 ± 0.027; (treatment time: 6 days) 0.89 ± 0.11.

In the case of `Cc1ncc([N+](=O)[O-])n1CC(C)O` (centres undefined) [Secnidazole], the normalised cell viability reads like this: (treatment time: 3 days) 1.02 ± 0.029; (treatment time: 6 days) 1.06 ± 0.033.

On to `O=C(O)c1ccccc1OP(=O)(O)O` [Fosfosal], for which the normalised cell viability runs as follows: (treatment time: 3 days) 1.02 ± 0.023; (treatment time: 6 days) 1.02 ± 0.029.

In the case of `Nc1cc(N2CCCCC2)nc(N)[n+]1[O-]` [Minoxidil], the normalised cell viability was determined as 0.95 ± 0.061 (treatment time: 3 days) and 0.994 ± 0.034 (treatment time: 6 days).

As to `COc1ccc2cc([C@H](C)C(=O)O)ccc2c1` [Naproxen], the normalised cell viability (treatment time: 3 days) is 1.11 ± 0.11 and the normalised cell viability (treatment time: 6 days) amounted to 1.09 ± 0.03.

As to `O=c1n(CCCN2CCN(c3cccc(Cl)c3)CC2)nc2ccccn12` [Trazodone hydrochloride], the normalised cell viability (treatment time: 3 days) amounted to 1.11 ± 0.075 and the normalised cell viability (treatment time: 6 days) was 1.03 ± 0.03.

Take `CC1(C)S[C@@H]2[C@H](NC(=O)[C@H](N)c3ccccc3)C(=O)N2[C@H]1C(=O)O` [Ampicillin trihydrate]: the normalised cell viability is, setting by setting: (treatment time: 3 days) 1.22 ± 0.038; (treatment time: 6 days) 1.07 ± 0.076.

As for `C[C@@H]1C[C@H]2[C@@H]3CCC4=CC(=O)C=C[C@]4(C)[C@@]3(Cl)[C@@H](O)C[C@]2(C)[C@@]1(OC(=O)c1ccco1)C(=O)CCl` [Mometasone furoate], the normalised cell viability by setting is: (treatment time: 3 days) 0.923 ± 0.01; (treatment time: 6 days) 0.893 ± 0.036.

As to `CN1CCCN(C(c2ccccc2)c2ccc(Cl)cc2)CC1` (centres undefined) [Homochlorcyclizine dihydrochloride], the normalised cell viability is, setting by setting: (treatment time: 3 days) 0.739 ± 0.037; (treatment time: 6 days) 0.789 ± 0.061.

`CCOc1ccc2nc(S(N)(=O)=O)sc2c1` [Ethoxzolamide] came in with a normalised cell viability (treatment time: 3 days) of 1.09 ± 0.034 and a normalised cell viability (treatment time: 6 days) of 1.11 ± 0.019.

Regarding `Nc1ncnc2c1ncn2C1OC(COP(=O)(O)O)C(O)C1O` (centres undefined) [Adenosine 5'-monophosphate monohydrate], the normalised cell viability runs as follows: (treatment time: 3 days) 1.23 ± 0.043; (treatment time: 6 days) 1.09 ± 0.071.
